Measured values as given in the supplement of paper PMC12217912.
The other results are listed elsewhere or left out. The full chains were built here from the parent and the listed change. Values near 0.05 are background.

B1: TEV protease; numbered along this chain (parent)
chain: MGESLFKGPRDYNPISSSICHLTNESDGHTTSLYGIGFGPFIITNKHLFRRNNGTLVVQSLHGVFKVKDTTTLQQHLVDGRDMIIIRMPKDFPPFPQKLKFREPQREERICLVTTNFQTKSMSSMVSDTSCTFPSGDGIFWKHWIQTKDGQCGSPLVSTRDGFIVGIHSASNFTNTNNYFTSVPKNFMELLTNQEAQQWVSGWRLNADSVLWGGHKVFMVKPEEPFQPVKEATQL
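Further: Bxb1 expression induced with 0.2% (w/v) L-rhamnose at OD600 near 0.5, cultures sampled hourly, flipped fraction per protease–substrate barcode pair counted by paired-end Illumina sequencing.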

Variants of: B1
Assay: raw area under fraction-flipped curve 0-4 h after induction (AUC4h, not background-subtracted), DNA-recorder readout of cleavage of the substrate (dimensionless); higher = more cleavage of the substrate by the protease variant
Settings: temperature: 34 °C; time window: 0-4 h after rhamnose induction
Experimental: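 In vivo DNA recorder in E. coli TOP10(DE3) ΔrhaA at 34 °C. Each TEVp single-site mutant (parent TEVp 0) is paired with a single-site variant of the 7-mer TEVs (canonical ENLYFQ|S). The substrate sits between flexible linkers in a Bxb1-sfGFP-TEVs-SsrA fusion, so cleavage stabilises Bxb1 and speeds flipping of a recombination array, read by NGS. The value is the raw area under the fraction-flipped curve over 0-4 h after rhamnose induction (AUC4h), with ≥20 reads per time point. It is not background-subtracted; inactive controls average about 0.047.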
For MGESLFKGPRDYNPISSSICHLTNESDGHTTSLYGIGFGPFIITNKHLFRRNNGTLVVQSLHGVFKVKDTTTLQQHLVDGRDMIIIRMPKDFPPFPQKLKFREPQREERICLVTTNFQTKSMSSMVSDTSCTFPSGDGIFWKHWIQTKDGQCGSPLVSTRDGFIVGIHSASNFTNTNNYFISVPKNFMELLTNQEAQQWVSGWRLNADSVLWGGHKVFMVKPEEPFQPVKEATQL [T181I], the “area with substrate EALYFQS” value was 0.115, the “area with substrate EDLYFQS” value was 0.0633 and the “area with substrate EFLYFQS” value was 0.08. For the same variant, the “area with substrate EGLYFQS” value was 0.0676, the “area with substrate EKLYFQS” value was 0.0487 and the “area with substrate EPLYFQS” value was 0.0812. The “area with substrate ERLYFQS” value was 0.0575 and the “area with substrate ESLYFQS” value was 0.0634.
With MGESLFKGPRDYNPISSSICHLTNESDGHTTSLYGIGFGPFIITNKHLFRRNNGTLVVQSLHGVFKVKDTTTLQQHLVDGRDMIIIRMPKDFPPFPQKLKFREPQREERICLVTTNFQTKSMSSMVSDTSCTFPSGDGIFWKHWIQTKDGQCGSPLVSTRDGFIVGIHSASNFTNTNNYFTCVPKNFMELLTNQEAQQWVSGWRLNADSVLWGGHKVFMVKPEEPFQPVKEATQL [S182C] the “area with substrate EALYFQS” value was 0.15, the “area with substrate EDLYFQS” value was 0.105 and the “area with substrate EKLYFQS” value was 0.127. For the same variant, the “area with substrate ELLYFQS” value was 0.136, the “area with substrate EPLYFQS” value was 0.139 and the “area with substrate ESLYFQS” value was 0.11.
In the case of MGESLFKGPRDYNPISSSICHLTNESDGHTTSLYGIGFGPFIITNKHLFRRNNGTLVVQSLHGVFKVKDTTTLQQHLVDGRDMIIIRMPKDFPPFPQKLKFREPQREERICLVTTNFQTKSMSSMVSDTSCTFPSGDGIFWKHWIQTKDGQCGSPLVSTRDGFIVGIHSASNFTNTNNYFTVVPKNFMELLTNQEAQQWVSGWRLNADSVLWGGHKVFMVKPEEPFQPVKEATQL [S182V], the “area with substrate EALYFQS” value is reported as 0.134, the “area with substrate ESLYFQS” value is reported as 0.114 and the “area with substrate ETLYFQS” value is reported as 0.111. For the same variant, the “area with substrate EVLYFQS” value was 0.103.
For MGESLFKGPRDYNPISSSICHLTNESDGHTTSLYGIGFGPFIITNKHLFRRNNGTLVVQSLHGVFKVKDTTTLQQHLVDGRDMIIIRMPKDFPPFPQKLKFREPQREERICLVTTNFQTKSMSSMVSDTSCTFPSGDGIFWKHWIQTKDGQCGSPLVSTRDGFIVGIHSASNFTNTNNYFTSVPNNFMELLTNQEAQQWVSGWRLNADSVLWGGHKVFMVKPEEPFQPVKEATQL [K185N], the “area with substrate EALYFQS” value was 0.114, the “area with substrate EELYFQS” value was 0.143 and the “area with substrate EGLYFQS” value was 0.0713. The “area with substrate EHLYFQS” value was 0.103, the “area with substrate EILYFQS” value was 0.0937 and the “area with substrate EMLYFQS” value was 0.111. The “area with substrate EPLYFQS” value was 0.134.
With MGESLFKGPRDYNPISSSICHLTNESDGHTTSLYGIGFGPFIITNKHLFRRNNGTLVVQSLHGVFKVKDTTTLQQHLVDGRDMIIIRMPKDFPPFPQKLKFREPQREERICLVTTNFQTKSMSSMVSDTSCTFPSGDGIFWKHWIQTKDGQCGSPLVSTRDGFIVGIHSASNFTNTNNYFTSVPKFFMELLTNQEAQQWVSGWRLNADSVLWGGHKVFMVKPEEPFQPVKEATQL [N186F] the “area with substrate EALYFQS” value was 0.132, the “area with substrate EGLYFQS” value was 0.0957 and the “area with substrate EPLYFQS” value was 0.107. For the same variant, the “area with substrate ERLYFQS” value was 0.119, the “area with substrate ESLYFQS” value was 0.105 and the “area with substrate EVLYFQS” value was 0.0896.
In the case of MGESLFKGPRDYNPISSSICHLTNESDGHTTSLYGIGFGPFIITNKHLFRRNNGTLVVQSLHGVFKVKDTTTLQQHLVDGRDMIIIRMPKDFPPFPQKLKFREPQREERICLVTTNFQTKSMSSMVSDTSCTFPSGDGIFWKHWIQTKDGQCGSPLVSTRDGFIVGIHSASNFTNTNNYFTSVPKNFMEDLTNQEAQQWVSGWRLNADSVLWGGHKVFMVKPEEPFQPVKEATQL [L190D], the “area with substrate EALYFQS” value is reported as 0.0944, the “area with substrate EDLYFQS” value is reported as 0.119 and the “area with substrate EELYFQS” value is reported as 0.0829. The “area with substrate EFLYFQS” value was 0.0695, the “area with substrate EHLYFQS” value was 0.0766 and the “area with substrate EILYFQS” value was 0.104. For the same variant, the “area with substrate EKLYFQS” value was 0.0937, the “area with substrate EQLYFQS” value was 0.0842 and the “area with substrate ERLYFQS” value was 0.102. The “area with substrate EVLYFQS” value was 0.105 and the “area with substrate EWLYFQS” value was 0.085.
In the case of MGESLFKGPRDYNPISSSICHLTNESDGHTTSLYGIGFGPFIITNKHLFRRNNGTLVVQSLHGVFKVKDTTTLQQHLVDGRDMIIIRMPKDFPPFPQKLKFREPQREERICLVTTNFQTKSMSSMVSDTSCTFPSGDGIFWKHWIQTKDGQCGSPLVSTRDGFIVGIHSASNFTNTNNYFTSVPKNFMEFLTNQEAQQWVSGWRLNADSVLWGGHKVFMVKPEEPFQPVKEATQL [L190F], the “area with substrate EALYFQS” value is reported as 0.0797, the “area with substrate EGLYFQS” value is reported as 0.082 and the “area with substrate EKLYFQS” value is reported as 0.0879. The “area with substrate EMLYFQS” value was 0.104, the “area with substrate ERLYFQS” value was 0.0837 and the “area with substrate ESLYFQS” value was 0.092. The “area with substrate ETLYFQS” value was 0.0983.
With MGESLFKGPRDYNPISSSICHLTNESDGHTTSLYGIGFGPFIITNKHLFRRNNGTLVVQSLHGVFKVKDTTTLQQHLVDGRDMIIIRMPKDFPPFPQKLKFREPQREERICLVTTNFQTKSMSSMVSDTSCTFPSGDGIFWKHWIQTKDGQCGSPLVSTRDGFIVGIHSASNFTNTNNYFTSVPKNFMENLTNQEAQQWVSGWRLNADSVLWGGHKVFMVKPEEPFQPVKEATQL [L190N] the “area with substrate EALYFQS” value was 0.0986, the “area with substrate EILYFQS” value was 0.0692 and the “area with substrate EPLYFQS” value was 0.0827.
In the case of MGESLFKGPRDYNPISSSICHLTNESDGHTTSLYGIGFGPFIITNKHLFRRNNGTLVVQSLHGVFKVKDTTTLQQHLVDGRDMIIIRMPKDFPPFPQKLKFREPQREERICLVTTNFQTKSMSSMVSDTSCTFPSGDGIFWKHWIQTKDGQCGSPLVSTRDGFIVGIHSASNFTNTNNYFTSVPKNFMELLTCQEAQQWVSGWRLNADSVLWGGHKVFMVKPEEPFQPVKEATQL [N193C], the “area with substrate EALYFQS” value is reported as 0.131, the “area with substrate EGLYFQS” value is reported as 0.104 and the “area with substrate EKLYFQS” value is reported as 0.108.
With MGESLFKGPRDYNPISSSICHLTNESDGHTTSLYGIGFGPFIITNKHLFRRNNGTLVVQSLHGVFKVKDTTTLQQHLVDGRDMIIIRMPKDFPPFPQKLKFREPQREERICLVTTNFQTKSMSSMVSDTSCTFPSGDGIFWKHWIQTKDGQCGSPLVSTRDGFIVGIHSASNFTNTNNYFTSVPKNFMELLTQQEAQQWVSGWRLNADSVLWGGHKVFMVKPEEPFQPVKEATQL [N193Q] the “area with substrate EALYFQS” value was 0.0705, the “area with substrate EDLYFQS” value was 0.136 and the “area with substrate EFLYFQS” value was 0.078. For the same variant, the “area with substrate EILYFQS” value was 0.0509, the “area with substrate EKLYFQS” value was 0.0794 and the “area with substrate EQLYFQS” value was 0.0996. The “area with substrate ERLYFQS” value was 0.081, the “area with substrate ESLYFQS” value was 0.0841 and the “area with substrate ETLYFQS” value was 0.0999. For the same variant, the “area with substrate EVLYFQS” value was 0.0837.
For MGESLFKGPRDYNPISSSICHLTNESDGHTTSLYGIGFGPFIITNKHLFRRNNGTLVVQSLHGVFKVKDTTTLQQHLVDGRDMIIIRMPKDFPPFPQKLKFREPQREERICLVTTNFQTKSMSSMVSDTSCTFPSGDGIFWKHWIQTKDGQCGSPLVSTRDGFIVGIHSASNFTNTNNYFTSVPKNFMELLTYQEAQQWVSGWRLNADSVLWGGHKVFMVKPEEPFQPVKEATQL [N193Y], the “area with substrate EALYFQS” value was 0.0825, the “area with substrate EGLYFQS” value was 0.0681 and the “area with substrate EILYFQS” value was 0.0841. For the same variant, the “area with substrate EKLYFQS” value was 0.083, the “area with substrate ERLYFQS” value was 0.0793 and the “area with substrate ESLYFQS” value was 0.0781. For the same variant, the “area with substrate ETLYFQS” value was 0.0879.
